The results in this text go back to patent US10723751B2 (priority 2013, dated 2020).

This test concerns multiresistant Pseudomonas aeruginosa. Conditions: tracheal wash isolate.

Take `CC1=C(C(=O)O)N2C(=O)[C@@H](NC(=O)[C@H](N)c3ccccc3)[C@H]2SC1` [cephalexin]: the culture sensitivity entry is listed as “resistance”.

Take `CN1CCN(c2c(F)cc3c(=O)c(C(=O)O)cn4c3c2OCN4C)CC1` [marbofloxacin]: the culture sensitivity entry is “sensitive”.
